# The supplement of paper PMC8728848
# The other results are listed elsewhere or left out.
# Legend:
# Experiment in all cases: glycan array binding signal (z-score within array); higher = stronger binding
# Settings in all cases: glycan notation: IUPAC condensed, linker removed
# [1] = molecular target: Neu5Ac(a2-3)Gal(b1-3)GlcNAc(b1-2)Man(a1-3)[GlcNAc(b1-4)][Neu5Ac(a2-3)Gal(b1-3)GlcNAc(b1-2)Man(a1-6)]Man(b1-4)GlcNAc(b1-4)GlcNAc
# Procedure, shortened: (§1)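 The binding signal is a Z-score computed within each array and averaged over linkers. Arrays of the same protein sequence at different concentrations or buffers were also averaged together. Data originate from 3228 arrays in the Consortium for Functional Glycomics database, kept only where the protein sequence was available.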
# [2] = molecular target: Neu5Ac(a2-3)Gal(b1-3)GlcNAc(b1-2)Man(a1-3)[Neu5Ac(a2-3)Gal(b1-3)GlcNAc(b1-2)Man(a1-6)]Man(b1-4)GlcNAc(b1-4)GlcNAc
# Procedure, shortened: as §1
# [3] = molecular target: Neu5Ac(a2-3)Gal(b1-3)GlcNAc(b1-3)Gal(b1-3)GlcNAc
# Procedure, shortened: as §1
# [4] = molecular target: Neu5Ac(a2-3)Gal(b1-3)GlcNAc(b1-3)Gal(b1-4)GlcNAc
# Procedure, shortened: as §1
# [5] = molecular target: Neu5Ac(a2-3)Gal(b1-3)GlcNAc(b1-3)GalNAc
# Procedure, shortened: as §1
# [6] = molecular target: Neu5Ac(a2-3)Gal(b1-3)GlcNAc(b1-4)Gal(b1-4)Glc
# Procedure, shortened: as §1
# [7] = molecular target: Neu5Ac(a2-3)Gal(b1-3)GlcNAc(b1-6)GalNAc
# Procedure, shortened: as §1
# [8] = molecular target: Neu5Ac(a2-3)Gal(b1-3)GlcNAc6S
# Procedure, shortened: as §1
# [9] = molecular target: Neu5Ac(a2-3)Gal(b1-3)[Fuc(a1-4)]GlcNAc
# Procedure, shortened: as §1
# [10] = molecular target: Neu5Ac(a2-3)Gal(b1-3)[Fuc(a1-4)]GlcNAc(b1-3)Gal(b1-3)[Fuc(a1-4)]GlcNAc
# Procedure, shortened: as §1
# [11] = molecular target: Neu5Ac(a2-3)Gal(b1-3)[Fuc(a1-4)]GlcNAc(b1-3)Gal(b1-4)[Fuc(a1-3)]GlcNAc
# Procedure, shortened: as §1
# [12] = molecular target: Neu5Ac(a2-3)Gal(b1-3)[GlcNAc(b1-6)]GalNAc
# Procedure, shortened: as §1
# [13] = molecular target: Neu5Ac(a2-3)Gal(b1-3)[Neu5Ac(a2-6)]GalNAc
# Procedure, shortened: as §1
# [14] = molecular target: Neu5Ac(a2-3)Gal(b1-3)[Neu5Ac(a2-6)]GlcNAc(b1-3)[Fuc(a1-3)[Gal(b1-4)]GlcNAc(b1-6)]Gal(b1-4)Glc
# Procedure, shortened: as §1
# [15] = molecular target: Neu5Ac(a2-3)Gal(b1-3)]Neu5Ac(a2-3)Gal(b1-4)]GlcNAc
# Procedure, shortened: as §1
# [16] = molecular target: Neu5Ac(a2-3)Gal(b1-4)Glc
# Procedure, shortened: as §1
# [17] = molecular target: Neu5Ac(a2-3)Gal(b1-4)GlcNAc
# Procedure, shortened: as §1
# [18] = molecular target: Neu5Ac(a2-3)Gal(b1-4)GlcNAc(b1-2)Man
# Procedure, shortened: as §1
# [19] = molecular target: Neu5Ac(a2-3)Gal(b1-4)GlcNAc(b1-2)Man(a1-3)[GlcNAc(b1-4)][Neu5Ac(a2-3)Gal(b1-4)GlcNAc(b1-2)Man(a1-6)]Man(b1-4)GlcNAc(b1-4)GlcNAc
# Procedure, shortened: as §1
# [20] = molecular target: Neu5Ac(a2-3)Gal(b1-4)GlcNAc(b1-2)Man(a1-3)[Neu5Ac(a2-3)Gal(b1-4)GlcNAc(b1-2)Man(a1-6)]Man(b1-4)GlcNAc(b1-4)GlcNAc
# Procedure, shortened: as §1
# [21] = molecular target: Neu5Ac(a2-3)Gal(b1-4)GlcNAc(b1-2)Man(a1-3)[Neu5Ac(a2-3)Gal(b1-4)GlcNAc(b1-2)Man(a1-6)]Man(b1-4)GlcNAc(b1-4)[Fuc(a1-6)]GlcNAc
# Procedure, shortened: as §1
# [22] = molecular target: Neu5Ac(a2-3)Gal(b1-4)GlcNAc(b1-2)Man(a1-3)[Neu5Ac(a2-6)Gal(b1-4)GlcNAc(b1-2)Man(a1-6)]Man(b1-4)GlcNAc(b1-4)GlcNAc
# Procedure, shortened: as §1
# [23] = molecular target: Neu5Ac(a2-3)Gal(b1-4)GlcNAc(b1-2)[Neu5Ac(a2-3)Gal(b1-4)GlcNAc(b1-4)]Man(a1-3)[GlcNAc(b1-4)][Neu5Ac(a2-3)Gal(b1-4)GlcNAc(b1-2)[Neu5Ac(a2-3)Gal(b1-4)GlcNAc(b1-6)]Man(a1-6)]Man(b1-4)GlcNAc(b1-4)GlcNAc
# Procedure, shortened: as §1
# [24] = molecular target: Neu5Ac(a2-3)Gal(b1-4)GlcNAc(b1-2)[Neu5Ac(a2-3)Gal(b1-4)GlcNAc(b1-4)]Man(a1-3)[GlcNAc(b1-4)][Neu5Ac(a2-3)Gal(b1-4)GlcNAc(b1-4)Man(a1-6)]Man(b1-4)GlcNAc(b1-4)GlcNAc
# Procedure, shortened: as §1
# [25] = molecular target: Neu5Ac(a2-3)Gal(b1-4)GlcNAc(b1-2)[Neu5Ac(a2-3)Gal(b1-4)GlcNAc(b1-6)]Man(a1-6)[Neu5Ac(a2-3)Gal(b1-4)GlcNAc(b1-2)Man(a1-3)]Man(b1-4)GlcNAc(b1-4)GlcNAc
# Procedure, shortened: as §1
# [26] = molecular target: Neu5Ac(a2-3)Gal(b1-4)GlcNAc(b1-2)[Neu5Ac(a2-3)Gal(b1-4)GlcNAc(b1-6)]Man(a1-6)[Neu5Ac(a2-3)Gal(b1-4)GlcNAc(b1-2)Man(a1-3)][GlcNAc(b1-4)]Man(b1-4)GlcNAc(b1-4)GlcNAc
# Procedure, shortened: as §1
# [27] = molecular target: Neu5Ac(a2-3)Gal(b1-4)GlcNAc(b1-3)Gal
# Procedure, shortened: as §1
# [28] = molecular target: Neu5Ac(a2-3)Gal(b1-4)GlcNAc(b1-3)Gal(b1-3)GlcNAc
# Procedure, shortened: as §1
# [29] = molecular target: Neu5Ac(a2-3)Gal(b1-4)GlcNAc(b1-3)Gal(b1-4)GlcNAc
# Procedure, shortened: as §1
# [30] = molecular target: Neu5Ac(a2-3)Gal(b1-4)GlcNAc(b1-3)Gal(b1-4)GlcNAc(b1-2)Man(a1-3)[Neu5Ac(a2-3)Gal(b1-4)GlcNAc(b1-3)Gal(b1-4)GlcNAc(b1-2)Man(a1-6)]Man(b1-4)GlcNAc(b1-4)GlcNAc
# Procedure, shortened: as §1
# [31] = molecular target: Neu5Ac(a2-3)Gal(b1-4)GlcNAc(b1-3)Gal(b1-4)GlcNAc(b1-3)Gal(b1-4)GlcNAc
# Procedure, shortened: as §1
# [32] = molecular target: Neu5Ac(a2-3)Gal(b1-4)GlcNAc(b1-3)Gal(b1-4)GlcNAc(b1-3)Gal(b1-4)GlcNAc(b1-2)Man(a1-3)[Neu5Ac(a2-3)Gal(b1-4)GlcNAc(b1-3)Gal(b1-4)GlcNAc(b1-3)Gal(b1-4)GlcNAc(b1-2)Man(a1-6)]GalNAc
# Procedure, shortened: as §1
# [33] = molecular target: Neu5Ac(a2-3)Gal(b1-4)GlcNAc(b1-3)Gal(b1-4)GlcNAc(b1-3)GalNAc
# Procedure, shortened: as §1
# [34] = molecular target: Neu5Ac(a2-3)Gal(b1-4)GlcNAc(b1-3)Gal(b1-4)GlcNAc(b1-3)[Neu5Ac(a2-3)Gal(b1-4)GlcNAc(b1-3)Gal(b1-4)GlcNAc(b1-6)]GalNAc
# Procedure, shortened: as §1
# [35] = molecular target: Neu5Ac(a2-3)Gal(b1-4)GlcNAc(b1-3)Gal(b1-4)GlcNAc(b1-6)[Gal(b1-3)]GalNAc
# Procedure, shortened: as §1
# [36] = molecular target: Neu5Ac(a2-3)Gal(b1-4)GlcNAc(b1-3)Gal(b1-4)[Fuc(a1-3)]GlcNAc
# Procedure, shortened: as §1
# [37] = molecular target: Neu5Ac(a2-3)Gal(b1-4)GlcNAc(b1-3)GalNAc
# Procedure, shortened: as §1
# [38] = molecular target: Neu5Ac(a2-3)Gal(b1-4)GlcNAc(b1-3)[Neu5Ac(a2-3)Gal(b1-4)GlcNAc(b1-6)]GalNAc
# Procedure, shortened: as §1
binder,measurement,setting,value
PX9937B-bvu-524-33-524 (Bacteroides vulgatus) (protein) GTAYWKNPDQFTAFNTGLHALLREKSYNFFLLGEPRADIYGDNPIGGEASQGMERLPFNTINKENVGISNYGDMYKIINQINQMIAKTTETTILTEATQNYYLGEAYGMRAYLYFHLLRSWGDVVLYLDYTEGQNLDLSNITKGVSPATEVMEQIKKDIQASENAFGSDYSFKLGRHFWSAAATQMLKGEAYLWSGRQMNGGNSDYTIAKNAFENVKKADVGLVTSSFKDIFSFENKKNKEMIFTIHNGKDEYEMWGGYYRMRLIPAQDKMVKIYCDENGNSFVGTPDAQLNGLTQLQVRREFYFKGFRNNDTRWTTSLKAVYKKDAQGVVSYFGPITYKFQGTMLEGGSTRSFLDDFPIYRYADCLLQLAMAKVLLGEDPTEEINAVRERAYGSKYFNEHKAEIAYPNDNDPEFYTDNKWMKPDNAGALEAILKERLREFMFEGKRWYDIRLLGWDYVHQYSSAEQSRLLWPIDAGTLTNNSALKQTPGYE,glycan array binding signal (z-score),[1],-0.481
same,glycan array binding signal (z-score),[2],0.046
same,glycan array binding signal (z-score),[3],-0.23
same,glycan array binding signal (z-score),[4],0.101
same,glycan array binding signal (z-score),[5],-0.281
same,glycan array binding signal (z-score),[6],-0.406
same,glycan array binding signal (z-score),[7],-0.332
same,glycan array binding signal (z-score),[8],-0.104
same,glycan array binding signal (z-score),[9],-0.342
same,glycan array binding signal (z-score),[10],-0.529
same,glycan array binding signal (z-score),[11],-0.189
same,glycan array binding signal (z-score),[12],-0.183
same,glycan array binding signal (z-score),[13],-0.365
same,glycan array binding signal (z-score),[14],-0.421
same,glycan array binding signal (z-score),[15],-0.153
same,glycan array binding signal (z-score),[16],0.215
same,glycan array binding signal (z-score),[17],-0.287
same,glycan array binding signal (z-score),[18],0.612
same,glycan array binding signal (z-score),[19],-0.522
same,glycan array binding signal (z-score),[20],0.207
same,glycan array binding signal (z-score),[21],0.395
same,glycan array binding signal (z-score),[22],-0.326
same,glycan array binding signal (z-score),[23],0.169
same,glycan array binding signal (z-score),[24],0.089
same,glycan array binding signal (z-score),[25],-0.104
same,glycan array binding signal (z-score),[26],-0.111
same,glycan array binding signal (z-score),[27],-0.272
same,glycan array binding signal (z-score),[28],-0.154
same,glycan array binding signal (z-score),[29],0
same,glycan array binding signal (z-score),[30],1.55
same,glycan array binding signal (z-score),[31],0.754
same,glycan array binding signal (z-score),[32],0.005
same,glycan array binding signal (z-score),[33],-0.354
same,glycan array binding signal (z-score),[34],0.257
same,glycan array binding signal (z-score),[35],0.028
same,glycan array binding signal (z-score),[36],0.162
same,glycan array binding signal (z-score),[37],-0.227
same,glycan array binding signal (z-score),[38],-0.349
